# Reference: PubChem BioAssay AID588855 (National Center for Advancing Translational Sciences (NCATS), 2011)
# “And” between values parts separate entries of the source, which are not always exact repeats. Equal entries are not always repeated. About 5,000 (1.2%) of roughly 410,000 compounds were called active. The shares of active, inactive and inconclusive entries below differ from those in the screen. Calls come from the whole dose curve; as a rule, active = well fitted inhibition curve with a large enough effect; inconclusive = small, poorly fitted or top-dose-only effect; inactive = no such curve, though single readings can be large or run the other way. Potencies of inconclusive entries are doubtful fits and often do not repeat.
# Experiment: qHTS for Inhibitors of TGF-b; note: nearly all actives have a fitted effect of over 65% in size
# Conditions: HepG2 CAGA-GFP TGF-b/SMAD3 reporter, GFP fluorescence, 18 h, TGF-beta stimulated, 500 pg/mL final; series mostly up to 46.1 µM; activity, negative = inhibition: at the top concentration
# Method in brief: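 HEPG2 CAGA-GFP, 1000 cells/well; 2 h settle, 37 C; cpd via pin tool; TGF-b 500 pg/mL final; 18 h, 37 C; GFP imaging ex488/em500-530; %Activity normalised to -TGF-b and +DMSO controls; CRC fit, curve class.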
# % is set by controls: 0 for no effect and ±100 for the full control effect; potency is the fitted concentration of half-maximal effect; tags give direction and shape of the fitted curve.
SMILES,Potency,"activity, negative = inhibition"
Cc1ccc(OCCSc2nnc(NC(=O)c3ccco3)s2)cc1,"inconclusive: 20 µM [inhibitor, single point]",
CCOC(=O)c1ccc2c(c1)nc(C1CCN(S(=O)(=O)c3cccs3)CC1)n2CC,"inconclusive: 2.24 µM [inhibitor, full curve]",
CC(=O)NS(=O)(=O)c1ccc(N2C(=O)c3ccccc3C2=O)cc1,,inactive: -0.623%
COc1ccc(CCNC(=O)c2ccc3c(Cl)c4c(nc3c2)CCCC4)c(OC)c1,"inconclusive: 8.91 µM [inhibitor, partial curve, poor fit]",
O=C(COC(=O)/C=C/C(=O)OCC(=O)Nc1ccccc1F)Nc1ccccc1F,"inconclusive: 35.5 µM [inhibitor, single point]",
CN(C)/C=C/C(=O)c1cccc(Oc2ncccn2)c1,"inconclusive: 6.31 µM [inhibitor, single point]",
C[C@H]1CN([C@@H](C)CO)C(=O)CCCn2nncc2CO[C@@H]1CN(C)Cc1ccc(-c2ccccc2)cc1,"inconclusive: 11.2 µM [inhibitor, partial curve, poor fit]",
OCC[C@H]1C[C@@H](O)[C@H](O)[C@@]2(CCc3ccccc3CO2)O1,,inactive: 1.15%
COC(=O)c1cc(=O)n(Cc2ccco2)c(=Nc2ccc(F)cc2)s1,"inconclusive: 35.5 µM [inhibitor, single point]",
O=C(NC(=S)Nc1ccc2[nH]c(=O)[nH]c2c1)c1ccccc1F,"inconclusive: 4.47 µM [inhibitor, single point]",
CC1=Nc2cc(C(=O)NCCCOC(C)C)ccc2Sc2ccc(C)cc21,"inconclusive: 3.55 µM [inhibitor, partial curve, poor fit]",
S=C(Nc1ccc(Cl)cc1)Nc1cccc2cnccc12,,inactive: -0.602%
O=C(c1ccco1)N1c2ccccc2Sc2ccccc21,,inactive: -2.01%
CCc1ccc(CNC(=O)CCS(=O)(=O)Cc2ccccc2F)cc1,,inactive: -8.32%
Cc1ccc(OCC(=O)Nc2ccc(S(=O)(=O)N3CCOCC3)cc2)c(Br)c1,,inactive: -26.1%
CCC(=O)N1CCN(c2nc3ccc(Br)cc3s2)CC1,"inconclusive: 22.4 µM [inhibitor, single point]",
Cc1ccccc1-c1nc(CS(=O)(=O)CC(=O)Nc2cc(Cl)cc(Cl)c2)c(C)o1,"inconclusive: 35.5 µM [inhibitor, single point]",
CCCSc1nc(=S)n(Cc2ccccc2)c(C)c1C(C)=O,,inactive: 1.66%
O/N=C1\CC/C(=N\O)c2nn(-c3ccccc3Cl)nc21,,inactive: -17.7%
O=C(CSc1ncc(-c2ccccc2)[nH]1)Nc1cccc(C(F)(F)F)c1,"inconclusive: 35.5 µM [inhibitor, single point]",
O=C1C(=Cc2ccco2)CCCC1=Cc1ccco1,,inactive: -26.7%
O=Cc1[nH]c2ccccc2c1N(C(=O)CCl)c1ccccc1,"inconclusive: 10 µM [inhibitor, partial curve, poor fit]",
CCn1cc([N+](=O)[O-])c(C(=O)Nc2nc3ccc(OC)cc3s2)n1,"inconclusive: 11.2 µM [inhibitor, partial curve, poor fit]",

SMILES,Potency,"activity, negative = inhibition"
NC(=O)[C@@H]1CC2(CC(c3cccc(NC(=O)CC(c4ccccc4)c4ccccc4)c3)=NO2)CN1C(=O)COc1ccc(Cl)cc1 (stereo not given in full),"inconclusive: 20 µM [inhibitor, single point]",
Cc1csc(=Nc2cccnc2)n1CC1CCCCC1,,inactive: -4%
CCOC(=O)[C@@H]1[C@H]2COc3ccccc3[C@@H]2N2C(=O)N(c3ccc(C(F)(F)F)cc3)C(=O)[C@@]12C,,inactive: 0.0094%
COC(=O)c1cc(=O)n(-c2ccc(F)cc2)c(=Nc2ccc(F)cc2)s1,"inconclusive: 25.1 µM [inhibitor, single point]",
Nn1c(SCC(=O)Nc2nccs2)nnc1-c1cccnc1,,inactive: -8.34%
Cc1ccc(S(=O)(=O)N2c3ccccc3-c3c(ssc3=S)C2(C)C)cc1,"inconclusive: 7.94 µM [inhibitor, partial curve, poor fit]",
Cc1cc(Cl)c(S(=O)(=O)N/N=C/c2ccc3c(c2)OCO3)c(Cl)c1,,inactive: -11.7%
Cc1ccc(-c2n[nH]c(=O)c3ccccc23)cc1N,,inactive: -15.6%
CC(C)c1ccc(CNC(=O)CCc2ccccc2)cc1,,inactive: 1.74%
Nc1ccc2c(c1)Nc1ccccc1CC2,,inactive: 5.34%
O=C(CSc1ccc2nnc(CCNC(=O)c3ccc(F)cc3)n2n1)NCC1CCCO1 (stereo not given),"inconclusive: 35.5 µM [inhibitor, single point]",
COC(=O)/C=C/c1ccccc1S(=O)(=O)N(Cc1ccccc1)Cc1ccco1,"inconclusive: 501 nM [inhibitor, full curve, poor fit] and inconclusive: 35.5 µM [inhibitor, single point]",
CC12CCC(=O)C=C1CCC1C2CCC2(C)C(c3csc(N)n3)CCC12 (stereo not given),active: 12.6 µM,
COc1ccc(Cc2c(-c3cccc(Cl)c3)nc3ccc(Br)cn23)c(C)c1,"inconclusive: 10 µM [inhibitor, partial curve]",
O=C(CN1C(=O)C2CC=C(Cl)CC2C1=O)NCc1ccccc1 (stereo not given),"inconclusive: 3.16 µM [inhibitor, partial curve, poor fit]",
CC(C)(C)C(=O)/C=c1\[nH]c(=O)/c(=C\c2ccc(F)cc2)s1,"inconclusive: 28.2 µM [inhibitor, single point]",
CCC(c1nnnn1-c1ccc(OC)cc1)N1CCN(C/C=C/c2ccccc2)CC1 (stereo not given),"inconclusive: 17.8 µM [inhibitor, single point]",
O=C(/C=C/c1cccc(Cl)c1)OCC(=O)c1ccc[nH]1,,inactive: -0.684%
CCOC(=O)c1cn2nc(-c3ccc(OC)cc3)cc2nc1C1CCN(C(=O)OC(C)(C)C)CC1,,inactive: -22.7%
Cc1ccc2nc(-c3cccnc3SCC(=O)N3c4ccccc4CC3C)[nH]c2c1 (stereo not given),,inactive: 0.0303%
O/N=C/c1cc(Cl)ccc1OCc1ccccc1Cl,"inconclusive: 35.5 µM [inhibitor, single point]",
O=C1c2ccc(Cl)cc2S(=O)(=O)c2cccc(C(=O)N3CCC(Cc4ccccc4)CC3)c21,"inconclusive: 10 µM [inhibitor, partial curve, poor fit]",
